# Data taken from the supplement of paper PMC8285479.
# Counter-ions that a name gives are not always drawn. ± gives the standard deviation of the averaged measurements. The full ranking holds about 1,900 compounds; the median of “normalised cell viability (NPI; 0 = phenylarsine oxide control, 1 = DMSO control)” is about 1, and the lowest 2% start at about 0.039. The list shows a part of the results.
# Test system: NCI-H1944
# Assay: normalised cell viability (NPI; 0 = phenylarsine oxide control, 1 = DMSO control) (fraction of DMSO control); NCI-H1944 is a non-small cell lung cancer line; higher = more viable cells (less compound toxicity)
# Details: 6 days
# [1] = glucocorticoid arm: hydrocortisone 2.75 uM co-treatment, compound 1 µM
# [2] = glucocorticoid arm: hydrocortisone 2.75 uM co-treatment, compound 5 µM
# [3] = glucocorticoid arm: hydrocortisone 2.75 uM pre-treated 2 days and continued, compound 1 µM
# [4] = glucocorticoid arm: hydrocortisone 2.75 uM pre-treated 2 days and continued, compound 5 µM
# [5] = glucocorticoid arm: vehicle, compound 1 µM
# [6] = glucocorticoid arm: vehicle, compound 5 µM
# 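Note: CTB read-out in 384-well plates, mean of triplicate wells, normalised per plate against 1 µM phenylarsine oxide and 0.1% DMSO, compounds added 24 h after seeding.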
SMILES,normalised cell viability [1],normalised cell viability [2],normalised cell viability [3],normalised cell viability [4],normalised cell viability [5],normalised cell viability [6]
Oc1ccc2ccccc2c1SSc1c(O)ccc2ccccc12,1.03 ± 0.01,1.08 ± 0.021,1.017 ± 0.0058,1.01 ± 0.028,1.013 ± 0.0058,1.04 ± 0.01
CCCCc1nc2cc(/C=C/C(=O)NO)ccc2n1CCN(CC)CC [Pracinostat (SB939)],0.9753 ± 0.004,0.00959 ± 0.0058,1 ± 0.0095,0.0658 ± 0.0071,0.686 ± 0.077,0.000852 ± 0.0004
O=C(O)/C=C/c1ccc(O)c(O)c1 [Caffeic Acid],0.993 ± 0.029,0.988 ± 0.009,0.993 ± 0.0062,0.988 ± 0.0085,1.017 ± 0.0058,1.01 ± 0.011
N=C(N)Nc1ccc(C(=O)Oc2ccc3cc(C(=N)N)ccc3c2)cc1 [Nafamostat mesylate],0.9887 ± 0.009,1.01 ± 0.011,1.01 ± 0.011,1.03 ± 0.017,1.002 ± 0.0072,1.013 ± 0.0058
Cc1[nH]c2ccccc2c1C1=C(NCCc2ccc(F)cc2)C(=O)N(C)C1=O,0.964 ± 0.019,0.962 ± 0.053,0.988 ± 0.011,0.973 ± 0.021,0.977 ± 0.007,0.9803 ± 0.0047
OCC1OC(n2cnc3c(NC4CCCCC4)ncnc32)C(O)C1O (stereo not drawn) [N6-Cyclohexyladenosine],1.01 ± 0.012,1.02 ± 0.01,1.01 ± 0.019,1.01 ± 0.025,0.9773 ± 0.0015,0.981 ± 0.0036
N[C@@H](Cc1c[nH]c2ccc(O)cc12)C(=O)O [5-Hydroxy-L-tryptophan],1.01 ± 0.012,1.013 ± 0.0058,1.017 ± 0.0058,1.013 ± 0.0058,1.01,1.01 ± 0.011
CC(C)n1nc(-c2ccc3oc(N)nc3c2)c2c(N)ncnc21,0.33 ± 0.017,0.201 ± 0.0068,0.454 ± 0.01,0.295 ± 0.013,0.169 ± 0.0025,0.0832 ± 0.0029
NC(=O)C1=CN(C2OC(COP(=O)(O)OP(=O)(O)OC[C@H]3O[C@@H](n4cnc5c(N)ncnc54)C(OP(=O)(O)O)[C@H]3O)C(O)C2O)C=CC1 (stereo partly drawn) [NADPH tetrasodium],0.999 ± 0.0017,0.995 ± 0.018,0.9987 ± 0.0015,1.02 ± 0.04,1.007 ± 0.0058,1.02 ± 0.017
CC1=C(/C=C/C(C)=C/C=C/C(C)=C/C(=O)O)C(C)(C)CCC1 [Retinoic acid],0.98 ± 0.007,0.993 ± 0.013,0.998 ± 0.019,0.997 ± 0.014,0.9697 ± 0.0055,0.973 ± 0.0099
CC1=C(/C=C/C(C)=C/C=C/C(C)=C/C(=O)O)C(C)(C)CCC1 [Retinoic acid; Tretinoin; 13-cis-retinoic acid],1 ± 0.015,1.06 ± 0.011,0.9537 ± 0.0093,1.02 ± 0.015,1.003 ± 0.0064,1.01 ± 0.019
O=C(Nc1nc2cccc(-c3ccc(CN4CCS(=O)(=O)CC4)cc3)n2n1)C1CC1 [Filgotinib (GLPG0634)],0.95 ± 0.015,0.874 ± 0.019,0.95 ± 0.016,0.904 ± 0.035,0.993 ± 0.01,1 ± 0.012
CC(=O)Oc1ccccc1C(=O)O [Acetylsalicylic acid],1.001 ± 0.0081,0.996 ± 0.016,0.974 ± 0.033,0.9805 ± 0.0035,0.991 ± 0.0062,0.9943 ± 0.004
CC(=O)Oc1ccccc1C(=O)O [Aspirin (Acetylsalicylic acid)],0.981 ± 0.012,1.003 ± 0.0061,0.983 ± 0.012,1.01 ± 0.011,0.997 ± 0.001,1.003 ± 0.0061
CC1=C(/C=C/C(C)=C/C=C/C(C)=C/C=C/C=C(C)/C=C/C=C(C)/C=C/C2=C(C)C(=O)[C@@H](O)CC2(C)C)C(C)(C)C[C@H](O)C1=O [Astaxanthin],0.9913 ± 0.0035,0.989 ± 0.0079,0.991 ± 0.016,1.005 ± 0.0071,0.993 ± 0.015,1.002 ± 0.007
CNS(=O)(=O)CCc1ccc2[nH]cc(C3CCN(C)CC3)c2c1 [Naratriptan],1.01 ± 0.012,1.02 ± 0.029,1.023 ± 0.0058,1.027 ± 0.0058,1 ± 0.0084,0.9963 ± 0.0038
O=C(O)c1ccc(-c2c[nH]c3ncc(-c4ccccc4)cc23)cc1C1CCCC1,1.02 ± 0.015,1.03 ± 0.015,1.013 ± 0.0058,1.02 ± 0.015,1.005 ± 0.0087,1.02 ± 0.016
CN1CCc2cc(Cl)c(O)cc2[C@@H](c2ccccc2)C1,0.99 ± 0.0087,0.945 ± 0.0095,0.9893 ± 0.0078,0.952 ± 0.015,0.9837 ± 0.0035,0.983 ± 0.007
Nc1ccc(N2C(=O)c3ccccc3C2=O)c(Cl)c1 [N-(4-Amino-2-chlorophenyl)phthalimide],0.995 ± 0.0056,1.013 ± 0.0058,0.999 ± 0.022,1.01 ± 0.018,0.994 ± 0.017,1.003 ± 0.0058
CC1=C(C(=O)O)N2C(=O)[C@@H](NC(=O)[C@H](N)C3=CCC=CC3)[C@H]2SC1 [Cephradine],1.03 ± 0.01,1.01 ± 0.019,1.02 ± 0.015,1.01,1.02 ± 0.01,1.03 ± 0.01
C=CC(=O)Nc1cc(Nc2nccc(-c3cn(C)c4ccccc34)n2)c(OC)cc1N(C)CCN(C)C,0.891 ± 0.003,0.842 ± 0.022,0.944 ± 0.015,0.916 ± 0.034,0.789 ± 0.028,0.762 ± 0.045
C#Cc1cccc(Nc2ncnc3cc4c(cc23)OCCOCCOCCO4)c1 [Icotinib],0.9603 ± 0.0029,0.983 ± 0.016,0.965 ± 0.019,0.949 ± 0.016,0.968 ± 0.019,0.958 ± 0.013
CCc1c(C)[nH]c2c1C(=O)C(CN1CCOCC1)CC2 (stereo not drawn) [Molindone hydrochloride],0.98 ± 0.012,0.98 ± 0.017,1.003 ± 0.0064,1.02 ± 0.069,0.979 ± 0.003,0.9807 ± 0.0093
